From the supplement of paper PMC12355420
Counter-ions that a name gives are not always drawn. The list shows a part of the results. No stated cut-off is given here; in the data, active = 0.5 or less and inactive = the rest. Most values come without repeats; read them as rough.

Legend:
Conditions in all cases: 50 µM; 24 h
[1] = system: HeLa VPS33A reporter cells; assay: relative cell viability (CellMask signal) vs DMSO (fraction of DMSO); higher = less cytotoxic;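 further: primary screen of an FDA-approved drug library in HeLa reporter cells in 96-well format, CellMask signal normalized to DMSO-treated wells set as 1, under 0.5 deemed highly cytotoxic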
[2] = system: HeLa VPS33A R498W KI + HA-SDC1-FLAG; assay: relative GAG core protein HA-SDC1 amount per cell number vs DMSO (fraction of DMSO); higher = more SDC1 (GAG core protein);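 further: HA-SDC1 level read out by In-Cell Western staining with an anti-HA antibody against the N-terminal tag, screening FDA-approved library drugs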
[3] = system: HeLa VPS33A KO + NLuc-VPS33A R498W; assay: relative mutant VPS33A R498W amount (NanoLuc luminescence) vs DMSO (fraction of DMSO); HeLa model of a glycosaminoglycan (GAG) storage disease; KI is knock-in and KO knock-out; SDC1 is syndecan 1; higher = higher mutant VPS33A level;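 further: screen of an FDA-approved drug library, NanoLuc luminescence read after lysing the treated cells, taken as a measure of mutant VPS33A protein stability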

**Q.** What does the source list for `CC(C)OC(=O)[C@H](C)N[P@](=O)(OC[C@H]1O[C@@H](n2ccc(=O)[nH]c2=O)[C@](C)(F)[C@@H]1O)Oc1ccccc1`?
**A.** relative cell viability [1]: 1.1; relative GAG core protein HA-SDC1 amount per cell number [2]: inactive: 1.62; relative mutant VPS33A R498W amount [3]: 1.37

**Q.** How did the relative cell viability [1] turn out when `O=C(O)CCCC[C@@H]1SC[C@@H]2NC(=O)N[C@@H]21` [Biotin] was run?
**A.** 1.54

**Q.** What about the “relative GAG core protein HA-SDC1 amount per cell number” value [2] of the same compound?
**A.** inactive: 0.93

**Q.** What about the “relative mutant VPS33A R498W amount” value [3] of the same compound?
**A.** 0.676

**Q.** How did the relative cell viability [1] turn out when `CCn1cc(C(=O)O)c(=O)c2cc(F)c(N3CCNC(C)C3)c(F)c21` (centres undefined) [Lomefloxacin HCl] was run?
**A.** 0.873

**Q.** What about the “relative GAG core protein HA-SDC1 amount per cell number” value [2] of the same compound?
**A.** inactive: 1.06

**Q.** And the “relative mutant VPS33A R498W amount” value [3]?
**A.** 0.885

**Q.** With `CN1C2CCCC1CC(NC(=O)c1nn(C)c3ccccc13)C2` (centres undefined) [Granisetron HCl] as the compound, how does the relative cell viability [1] read?
**A.** 1.26

**Q.** And the “relative GAG core protein HA-SDC1 amount per cell number” value [2]?
**A.** inactive: 1.39

**Q.** What about the “relative mutant VPS33A R498W amount” value [3] of the same compound?
**A.** 0.774

**Q.** For `COc1c2ccoc2cc2oc(=O)ccc12` [5-Methoxypsoralen], which relative cell viability [1] is on record?
**A.** 1.02

**Q.** What about the “relative GAG core protein HA-SDC1 amount per cell number” value [2] of the same compound?
**A.** inactive: 0.773

**Q.** And the “relative mutant VPS33A R498W amount” value [3]?
**A.** 0.885

**Q.** How did the relative cell viability [1] turn out when `OC[C@H]1O[C@H](OC[C@H]2O[C@H](O[C@]3(CO)O[C@H](CO)[C@@H](O)[C@@H]3O)[C@H](O)[C@@H](O)[C@@H]2O)[C@H](O)[C@@H](O)[C@H]1O` [D-(+)-Raffinose (hydrate)] was run?
**A.** 1.16

**Q.** And the “relative GAG core protein HA-SDC1 amount per cell number” value [2]?
**A.** inactive: 0.697

**Q.** What about the “relative mutant VPS33A R498W amount” value [3] of the same compound?
**A.** 1.24

**Q.** What does the source list for `C[C@]1(O)C[C@@H](c2nc(-c3ccc4ccc(-c5ccccc5)nc4c3)c3c(N)nccn32)C1` [Linsitinib]?
**A.** relative cell viability [1]: 1.15; relative GAG core protein HA-SDC1 amount per cell number [2]: inactive: 0.585; relative mutant VPS33A R498W amount [3]: 0.278

**Q.** `N#Cc1ccnc(N2C(=O)CC[C@H]2C(=O)N(c2cncc(F)c2)[C@H](C(=O)NC2CC(F)(F)C2)c2ccccc2Cl)c1` was tested. Which relative cell viability [1] did it give?
**A.** 1.05

**Q.** What about the “relative GAG core protein HA-SDC1 amount per cell number” value [2] of the same compound?
**A.** inactive: 0.864

**Q.** And the “relative mutant VPS33A R498W amount” value [3]?
**A.** 1.22

**Q.** For `C=C(c1ccc(C(=O)O)cc1)c1cc2c(cc1C)C(C)(C)CCC2(C)C` [Bexarotene], which relative cell viability [1] is on record?
**A.** 1.07

**Q.** And the “relative GAG core protein HA-SDC1 amount per cell number” value [2]?
**A.** active: 0.369

**Q.** What about the “relative mutant VPS33A R498W amount” value [3] of the same compound?
**A.** 1.46

**Q.** With `O=C1c2cccc3c2[C@H](CCC3)CN1[C@@H]1CN2CCC1CC2` [Palonosetron HCl] as the compound, how does the relative cell viability [1] read?
**A.** 1.03

**Q.** What about the “relative GAG core protein HA-SDC1 amount per cell number” value [2] of the same compound?
**A.** inactive: 0.893

**Q.** And the “relative mutant VPS33A R498W amount” value [3]?
**A.** 0.601

**Q.** Which results are given for `CN(C)CCc1c[nH]c2ccc(CS(=O)(=O)N3CCCC3)cc12` [Almotriptan Malate]?
**A.** relative cell viability [1]: 1.05; relative GAG core protein HA-SDC1 amount per cell number [2]: inactive: 0.896; relative mutant VPS33A R498W amount [3]: 1.37

**Q.** Which results are given for `CO[C@H]1C[C@@H]2CC[C@@H](C)[C@@](O)(O2)C(=O)C(=O)N2CCCC[C@H]2C(=O)O[C@H]([C@H](C)C[C@@H]2CC[C@H](n3cnnn3)[C@H](OC)C2)CC(=O)[C@H](C)/C=C(\C)[C@@H](O)[C@@H](OC)C(=O)[C@H](C)C[C@H](C)/C=C/C=C/C=C/1C` [Zotarolimus(ABT-578)]?
**A.** relative cell viability [1]: 1.16; relative GAG core protein HA-SDC1 amount per cell number [2]: active: 0.481; relative mutant VPS33A R498W amount [3]: 0.464

**Q.** How did the relative cell viability [1] turn out when `O=C1C(CC[S+]([O-])c2ccccc2)C(=O)N(c2ccccc2)N1c1ccccc1` (racemic) [(+/-)-Sulfinpyrazone] was run?
**A.** 1.13

**Q.** And the “relative GAG core protein HA-SDC1 amount per cell number” value [2]?
**A.** inactive: 0.863

**Q.** What about the “relative mutant VPS33A R498W amount” value [3] of the same compound?
**A.** 0.97

**Q.** What does the source list for `N=C(N)N/N=C/c1c(Cl)cccc1Cl` [Guanabenz Acetate]?
**A.** relative cell viability [1]: 1.03; relative GAG core protein HA-SDC1 amount per cell number [2]: inactive: 0.592; relative mutant VPS33A R498W amount [3]: 0.675

**Q.** Which results are given for `O=C1C(c2[nH]c3ccccc3c2O)=Nc2ccccc21` [Indigo]?
**A.** relative cell viability [1]: 1.01; relative GAG core protein HA-SDC1 amount per cell number [2]: inactive: 0.721; relative mutant VPS33A R498W amount [3]: 0.946

**Q.** For `COc1cc2c(cc1OC)CN(CCc1ccc(NC(=O)c3cccc4c(=O)c5cccc(OC)c5[nH]c34)cc1)CC2` [Elacridar], which relative cell viability [1] is on record?
**A.** 1.02

**Q.** What about the “relative GAG core protein HA-SDC1 amount per cell number” value [2] of the same compound?
**A.** inactive: 1.19

**Q.** And the “relative mutant VPS33A R498W amount” value [3]?
**A.** 0.81

**Q.** With `COc1ccc2cccc(CCNC(C)=O)c2c1` [Agomelatine] as the compound, how does the relative cell viability [1] read?
**A.** 1.05

**Q.** What about the “relative GAG core protein HA-SDC1 amount per cell number” value [2] of the same compound?
**A.** inactive: 0.808

**Q.** What about the “relative mutant VPS33A R498W amount” value [3] of the same compound?
**A.** 0.786

**Q.** `C=C1CC[C@H](O)C/C1=C/C=C1\CCC[C@]2(C)[C@@H]([C@H](C)CCCC(C)(C)O)CC[C@@H]12` [Calcifediol] was tested. Which relative cell viability [1] did it give?
**A.** 0.895

**Q.** What about the “relative GAG core protein HA-SDC1 amount per cell number” value [2] of the same compound?
**A.** inactive: 0.67

**Q.** And the “relative mutant VPS33A R498W amount” value [3]?
**A.** 1.65

**Q.** For `O=C(O)c1cc(=O)c2c(OCC(O)COc3cccc4oc(C(=O)O)cc(=O)c34)cccc2o1` [Cromolyn sodium], which relative cell viability [1] is on record?
**A.** 1.05

**Q.** What about the “relative GAG core protein HA-SDC1 amount per cell number” value [2] of the same compound?
**A.** inactive: 0.816

**Q.** What about the “relative mutant VPS33A R498W amount” value [3] of the same compound?
**A.** 1.39

**Q.** What does the source list for `CCN(CC)CCOCCOC(=O)C1(c2ccccc2)CCCC1` [Pentoxyverine Citrate]?
**A.** relative cell viability [1]: 0.86; relative GAG core protein HA-SDC1 amount per cell number [2]: inactive: 0.895; relative mutant VPS33A R498W amount [3]: 0.866

**Q.** Which results are given for `Cc1cc(Nc2cc(CN3CCOCC3)c3nc(C)c(Cc4ccc(Cl)cc4F)n3n2)n[nH]1`?
**A.** relative cell viability [1]: 1.14; relative GAG core protein HA-SDC1 amount per cell number [2]: inactive: 0.647; relative mutant VPS33A R498W amount [3]: 0.73

**Q.** What does the source list for `COC1=C(OC)C(=O)C(C/C=C(\C)CC/C=C(\C)CC/C=C(\C)CC/C=C(\C)CC/C=C(\C)CC/C=C(\C)CC/C=C(\C)CC/C=C(\C)CC/C=C(\C)CCC=C(C)C)=C(C)C1=O` [Coenzyme Q10]?
**A.** relative cell viability [1]: 1.1; relative GAG core protein HA-SDC1 amount per cell number [2]: inactive: 1; relative mutant VPS33A R498W amount [3]: 1.54

**Q.** How did the relative cell viability [1] turn out when `Cc1ccc2c(Cl)cc(Cl)c(O)c2n1` [Chlorquinaldol] was run?
**A.** 0.955

**Q.** What about the “relative GAG core protein HA-SDC1 amount per cell number” value [2] of the same compound?
**A.** active: 0.482

**Q.** And the “relative mutant VPS33A R498W amount” value [3]?
**A.** 1.64
